# Among all 200,000 compounds or so, about 10 (0.005%) were called active. The inconclusive results got no clear call from the source; some entries with a clear call stand among them for comparison. The call rests on the fitted dose curve; in most records, active means well fitted inhibition curve with a large enough effect; inconclusive means small, poorly fitted or top-dose-only effect, or effect the other way, or another doubt; inactive means no such curve, though single readings can be large or run the other way. A potency beside an inconclusive call is a rough fit, not a confirmed value.
# Target: Lysosomal alpha-glucosidase (Homo sapiens) (UniProt P10253)
# Assay: qHTS Assay for Inhibitors of Human alpha-Glucosidase as a Potential Chaperone Treatment of Pompe Disease;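 on activity change, negative = inhibition: plate controls were uninhibited enzyme wells for no effect and no-enzyme background for full effect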
# Settings: purified human GAA, 4-MU-alpha-glucoside fluorescence; activity change, negative = inhibition: at 76.9 µM (top of the series) unless noted
# Summary of the method: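 Fluorogenic assay: 4 nM human alpha-glucosidase with 400 uM 4-methylumbelliferyl-alpha-D-pyranoside in 50 mM citrate/phosphate, 0.005% Tween-20, pH 5.0, 20 min at room temperature. Compounds tested up to 77 uM; AC50 from Hill fits.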
# Potency means the concentration at half of the fitted maximal effect; tags describe the fitted curve by direction and shape.
SMILES,Potency,"activity change, negative = inhibition"
Cc1cc(C)c(S(=O)(=O)Nc2cccc3nsnc23)c(C)c1,"inconclusive: 56.2 µM [inhibitor, single point]",–
O=C(NCCCn1ccnc1)C(=O)NC1CCCCC1,–,inconclusive: 19.1% [activator]
CC1Cc2ccccc2N1C(=O)C1CCCN(S(=O)(=O)c2cccc3nsnc23)C1 (configuration not stated),"inconclusive: 6.31 µM [inhibitor, single point]",–
Nc1ccc2nc3n(c(=O)c2c1)CCC3,–,inconclusive: 17.3% [activator] [at 15.4 µM]
COc1ccc(-c2nc(NC(C)=O)sc2-c2ccc(OC)cc2)cc1,"inconclusive: 1.12 µM [activator, full curve, poor fit]",–
ClC1(Cl)CC1Cn1cnc2ccccc21 (configuration not stated),–,inconclusive: -15.1% [inhibitor]
N/C(=N/OCC(=O)Nc1cccc2ccccc12)c1nonc1N,"inconclusive: 56.2 µM [inhibitor, single point]",–
CCCC1(C)Nc2ccccc2-c2nc3ccccc3n21 (configuration not stated),"inconclusive: 31.6 µM [activator, partial curve]",–
CCCn1c(=O)c(C(=O)NCC2CCCO2)c(O)c2ccccc21 (configuration not stated),"inconclusive: 0.355 µM [activator, full curve]",–
COc1ccc(Nc2nc(-c3cccc([N+](=O)[O-])c3)nc3ccccc23)cc1,"inconclusive: 28.2 µM [inhibitor, single point]",–
O=C(Nc1nnc(CC(=O)N2CCOCC2)s1)C1COc2ccccc2O1 (configuration not stated),"inconclusive: 5.01 µM [inhibitor, single point]",–
Cc1sc2nc(SCC(=O)NCCOCCO)nc(N)c2c1C,–,inconclusive: 18.1% [activator]
Cc1nc(NCc2ccco2)c(C#N)c2c1COC(C)(C)C2,"inconclusive: 11.2 µM [inhibitor, single point]",–
Cc1nc2cc(-c3ccccc3)ccc2o1,"inconclusive: 0.501 µM [inhibitor, full curve]",–
COc1ccc(Oc2ccccc2C#N)cc1,"inconclusive: 5.01 µM [inhibitor, full curve]",–
O=C(O)c1ccccc1-c1ccccc1C(=O)NCc1cccc(C(F)(F)F)c1,–,inconclusive: 18% [activator]
COc1ccc(-c2cc(C(=O)Nc3ccccc3N3CCOCC3)c3ccccc3n2)cc1OC,"inconclusive: 50.1 µM [inhibitor, single point]",–
Oc1oc(-c2ccccc2)nc1/C=N/c1ccccn1,–,inconclusive: 19.2% [activator]
O=c1c(Cl)c(NCc2ccco2)cnn1C12CC3CC(CC(C3)C1)C2,–,inconclusive: 15.7% [activator]
CCOC(=O)c1ccccc1NC(=O)CSc1nc2ccccc2o1,"inconclusive: 35.5 µM [inhibitor, partial curve]",–
O=C(Cc1ccccc1)NN1C(=O)C2C3C=CC(C3)C2C1=O (configuration not stated),"inconclusive: 0.891 µM [inhibitor, full curve]",–
CCOC(=O)Cc1nc2nc(C)cc(C)n2n1,–,inconclusive: 2.63% [activator]
CCc1ccc2oc(-c3ccc(OC)cc3)cc(=Nc3cccc(C(=O)O)c3)c2c1,"inconclusive: 39.8 µM [activator, single point]",–

SMILES,Potency,"activity change, negative = inhibition"
CCN(Cc1ccccc1)S(=O)(=O)c1ccc(S(=O)(=O)N2CCN(CCC#N)CC2)cc1,"inconclusive: 11.2 µM [inhibitor, partial curve]",–
CC(=O)c1ccc(NC(=O)CCCN2C(=O)/C(=C/C(C)=C/c3ccccc3)SC2=S)cc1,"inconclusive: 28.2 µM [inhibitor, single point]",–
COc1ccc(C(=O)NCc2ccncc2)cc1OC,–,inconclusive: 18.6% [activator]
CCc1cccc(C)c1NC(=O)CN(C)Cc1cccc(F)c1,–,inconclusive: -19.3% [inhibitor]
CN1C(=O)c2cccc(NC(=O)Cc3ccccc3)c2C1=O,"inconclusive: 56.2 µM [inhibitor, single point]",–
COc1ccc(NC(=O)CSc2nnc(-c3ccccc3C)n2N)cc1,"inconclusive: 22.4 µM [inhibitor, partial curve]",–
CC1(C)CC(=O)C(C=NC2CCCCC2)=C(O)C1,"inconclusive: 14.1 µM [inhibitor, partial curve]",–
CCCNC(=O)c1ccc(-c2nc3ccccc3s2)s1,"inconclusive: 44.7 µM [activator, single point]",–
O=S(=O)(/C=C/c1ccccc1)N1CCN(c2nc(-c3ccccc3)nc3ccccc23)CC1,"inconclusive: 28.2 µM [inhibitor, single point]",–
O=S(=O)(CCc1nc2ccccc2[nH]1)c1ccc(Cl)cc1,"inconclusive: 28.2 µM [inhibitor, partial curve]",–
C=CCn1c(C)cc(C(=O)COC(=O)c2ccc(N)c([N+](=O)[O-])c2)c1C,"inconclusive: 50.1 µM [inhibitor, single point]",–
O=C(O)c1nnn(-c2cc(C(F)(F)F)cc(C(F)(F)F)c2)c1-c1ccccc1,"inconclusive: 22.4 µM [inhibitor, partial curve]",–
CCOC(=O)c1ccc(NC(=S)NCCc2ccccc2)cc1,"inconclusive: 35.5 µM [inhibitor, single point]",–
CC/C(C)=N/N1C(=O)c2ccccc2NC1(C)CC (configuration not stated),"inconclusive: 31.6 µM [activator, partial curve]",–
Cc1ccc(Oc2ncccc2C(=O)NCC(=O)O)cc1,"inconclusive: 0.708 µM [inhibitor, full curve, poor fit]",–
CC(Sc1ccc(Cl)cc1)C(=O)Nc1ccccc1C(=O)N1CCOCC1 (configuration not stated),"inconclusive: 12.6 µM [inhibitor, single point]",–
CC1(C)CC2CC(C)(CN2S(=O)(=O)c2cccc(N)c2)C1 (configuration not stated),"inconclusive: 44.7 µM [inhibitor, single point]",–
Cc1ccc(NC(=O)c2ccccn2)c(Br)c1,"inconclusive: 31.6 µM [inhibitor, single point]",–
CC(C)Oc1cccc(C(=O)N2CCCC2)c1,"inconclusive: 3.98 µM [inhibitor, partial curve, poor fit]",–
CCOc1ccccc1NC(=O)C1=C(C)NC(=O)NC1c1cccs1 (configuration not stated),–,inactive: -8.06%
CC(=O)/C(=N/Nc1cccc(C)c1)N1CCOCC1,–,inactive: 0.173%
CCCSC1=N/C(=C\C=C\c2ccco2)C(=O)S1,–,inconclusive: -16.8% [inhibitor]
O=C(C1COc2ccccc2O1)N1CCN(c2ccccc2Cl)CC1 (configuration not stated),"inconclusive: 44.7 µM [inhibitor, single point]",–

SMILES,Potency,"activity change, negative = inhibition"
CCOc1ccccc1NC(=O)N1CCCC1C(=O)Nc1ccc(NC(C)=O)cc1 (configuration not stated),"inconclusive: 56.2 µM [inhibitor, single point]",–
CN(C)CC(C)(C)CNC(=O)CC1C(=O)NCCN1Cc1ccc(-c2ccccc2)cc1 (configuration not stated),–,inconclusive: 16.5% [activator]
Cc1ccc(N2C(S)=C(C#N)C(=O)NC2c2ccco2)cc1 (configuration not stated),"inconclusive: 50.1 µM [inhibitor, single point]",–
Cc1cc(C)n2[nH]c(=O)c(N=Nc3cccc(C(F)(F)F)c3)c2n1,"inconclusive: 56.2 µM [inhibitor, single point]",–
O=C1NC(c2cccc(Cl)c2)Nc2ccccc21 (configuration not stated),–,inconclusive: 17.1% [activator]
CCC(=O)c1cc2c(C)cc(=O)oc2c(C)c1OC(=O)C(C)C,"inconclusive: 7.08 µM [inhibitor, single point]",–
CCOc1ccc(C2C(C#N)=C(N)SC(N)=C2C#N)cc1OC,–,inactive: 1.05%
Cc1ccc(S(=O)(=O)Cn2nnnc2C(c2ccccc2)N2CCN(c3ncccn3)CC2)cc1 (configuration not stated),"inconclusive: 50.1 µM [inhibitor, single point]",–
CCOC(=O)C1(C)NC(c2ccc(OC)cc2OC)C2C(=O)N(c3cccc(OC)c3)C(=O)C21 (configuration not stated),–,inconclusive: -19.6% [inhibitor] [at 15.4 µM]
Cc1nc(C)c(/C(O)=C/c2nc3ccc([N+](=O)[O-])cc3oc2=O)o1,"inconclusive: 44.7 µM [inhibitor, single point]",–
Cc1occc1-c1n[nH]c(=S)n1C,"inconclusive: 1.41 µM [activator, full curve, poor fit]",–
CC(=O)c1ccc(NC(=O)CSc2nnc(Cc3cccn3C)n2-c2ccc(F)cc2)cc1,–,inconclusive: -16.5% [inhibitor]
Cc1nn2c(NCCCN(C)C)c3c(nc2c1-c1ccccc1)CCC3,–,inconclusive: -18% [inhibitor]
COCc1cc(C)nc(SCC(=O)Oc2ccccc2)c1C#N,–,inactive: 2.02%
Cc1ccc(C)c(NC(=O)CCn2nc(C)cc2C)c1,–,inconclusive: -19.7% [inhibitor]
CC(C)(C)NC(=O)C(c1ccncc1)N(C(=O)c1csnn1)c1cccc2ccccc12 (configuration not stated),–,inconclusive: 11.9% [activator]
O=C(Nc1cccc(-c2cn3cccnc3n2)c1)c1ccc2c(c1)OCO2,"inconclusive: 35.5 µM [activator, single point]",–
Cc1c(NC(=O)/C(C#N)=C/c2ccc(-c3cccc(Cl)c3)o2)c(=O)n(-c2ccccc2)n1C,"inconclusive: 44.7 µM [inhibitor, single point]",–
O=C(NCCCCc1ccccc1)C12CN(Cc3ccccc3)CC1C(c1cccc([N+](=O)[O-])c1)=NO2 (configuration not stated),–,inactive: -2.47%
CCC(CO)NCC(O)COCc1ccc2c(c1)OCO2 (configuration not stated),"inconclusive: 56.2 µM [inhibitor, single point]",–
CCOC(=O)N1CCC(=NNC(=O)c2ccccc2F)CC1,"inconclusive: 11.2 µM [inhibitor, single point]",–

# Source: PubChem BioAssay AID1466 (National Center for Advancing Translational Sciences (NCATS), 2008)
